Source: patent US20240050583A1 (HARBOUR BIOMED SHANGHAI, published 2024)

B1: scFv-Fc PR002129 (Fc fusion)
chain: QVQLVQSGGGVVQPGRSLRLSCAASGFTFSSYGMHWVRQAPGKGLEWVAVIWYDGSNKDYADSVKGRFTISRDTSKNTLYLQMNSLRAEDTAVYYCAREQARSFDLWGRGTLVTVSSGGGGSGGGGSGGGGSDIQLTQSPYSLSASVGDRVTITCRASQTINNWLAWYQQKPGKAPKLLIYKASSLESGVPSRFSGSGSGTEFTLTISSLQPDDFATYYCQQYKLYSPMYTFGQGTKVEIKGGGAS[not shown - human IgG1 Fc]
notes: also called 1015M2-H4
B2: PR002129-ADC (Fc fusion)
chain: B1 chain
modifications: mc-vc-PAB-MMAE coupled to Cys-220 (Eu numbering; 88% of the site coupled)
notes: Coupling product of scFv-Fc PR002129 with mc-vc-PAB-MMAE, main component DAR=2; also called coupling product PR002129-ADC
B3: SIRPa-Fc fusion protein PR006345 (Fc fusion)
chain: EEELQIIQPDKSVLVAAGETATLRCTITSLFPVGPIQWFRGAGPGRVLIYNQRQGPFPRVTTVSDTTKRNNMDFSIRIGNITPADAGTYYCIKFRKGSPDDVEFKSGAGTELSVRAKPSGGGAS[not shown - human IgG1 Fc]
notes: also called ALX148 (clone No.)
B4: PR006345-ADC (Fc fusion)
chain: B3 chain
modifications: mc-vc-PAB-MMAE coupled to Cys-220 (Eu numbering; 92.45% of the site coupled)
notes: Coupling product of PR006345 with mc-vc-PAB-MMAE, without HIC purification; DAR=2 component 89% by LC-MS; also called coupling product PR006345-ADC

Legend:
[1] = target: T1, human ROR1 (human, UniProt Q01973 30-937); experiment: flow cytometry (FACS) on PanC-1 cells highly expressing human ROR1
T1 construct: whole, on cells; also called NTRKR1
Method: The binding ability of the antigen-binding protein to tumor cells PanC-1 (ATCC, CRL-1469) highly expressing human ROR1 was determined by flow cytometry FACS. Specifically, the cells were digested and resuspended in a DMEM complete medium, and the cell density was adjusted to 1×10⁶ cells/mL. The cells were seeded in a 96-well V-bottom plate (Corning, #3894) at 100 μL/well, followed by the addition of test binding proteins diluted in a 3-fold gradient at a concentration that was 2 times the final concentration, each at 100 μL/well. The cells were incubated at 4° C. for 1 h away from light. Thereafter, the cells in each well were rinsed twice with 100 μL of pre-cooled PBS, and centrifuged at 500 g at 4° C. for 5 min, and then the supernatant was discarded. Thereafter, a fluorescent secondary antibody (Alexa Fluor 488-conjugated AffiniPure Goat Anti-Human IgG, Fcγ Fragment Specific, Jackson ImmunoResearch Inc., #109-545-098, diluted in a 1:500 ratio) was added at 100 μL/well, and the plate was incubated at 4° C. for 30 min away from light. The cells in each well were then rinsed twice with 100 μL of pre-cooled PBS and centrifuged at 500 g at 4° C. for 5 min, and then the supernatant was discarded. […] Fluorescence signal values were read using a BD FACS CANTOII flow cytometer, and the data were processed and analyzed using FlowJo v10 (FlowJo, LLC) software.

[2] = target: T2, human CD47 (human, UniProt Q08722); experiment: flow cytometry (FACS) on CHOK1-hCD47 cells
T2 construct: whole, on cells; also called hCD47; leukocyte surface antigen CD47
T2 sequence (Q08722 19-323): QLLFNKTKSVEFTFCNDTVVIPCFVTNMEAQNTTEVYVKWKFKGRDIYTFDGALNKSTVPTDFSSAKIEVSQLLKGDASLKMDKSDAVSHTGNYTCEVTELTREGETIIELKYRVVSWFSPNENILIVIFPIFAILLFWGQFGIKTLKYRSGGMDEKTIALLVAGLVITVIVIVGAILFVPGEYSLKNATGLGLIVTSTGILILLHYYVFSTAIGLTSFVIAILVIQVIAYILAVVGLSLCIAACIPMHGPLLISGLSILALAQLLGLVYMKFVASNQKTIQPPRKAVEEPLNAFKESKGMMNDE
Method: The binding ability of the antigen-binding protein to CHOK1-hCD47 cells (GenScript, M00581) highly expressing human CD47 was determined by flow cytometry FACS. Specifically, the cells were digested and resuspended in a DMEM complete medium, and the cell density was adjusted to 1×10⁶ cells/mL. The cells were seeded in a 96-well V-bottom plate (Corning, #3894) at 100 µL/well, followed by the addition of test binding proteins diluted in a 3-fold gradient at a concentration that was 2 times the final concentration, each at 100 μL/well. The cells were incubated at 4° C. for 1 h away from light. Thereafter, the cells in each well were rinsed twice with 100 μL of pre-cooled PBS, and centrifuged at 500 g at 4° C. for 5 min, and then the supernatant was discarded. Thereafter, a fluorescent secondary antibody (Alexa Fluor 488-conjugated AffiniPure Goat Anti-Human IgG, Fcγ Fragment Specific, Jackson ImmunoResearch Inc., #109-545-098, diluted in a 1:500 ratio) was added at 100 μL/well, and the plate was incubated at 4° C. for 30 min away from light. The cells in each well were then rinsed twice with 100 μL of pre-cooled PBS and centrifuged at 500 g at 4° C. for 5 min, and then the supernatant was discarded. […] Fluorescence signal values were read using a BD FACS CANTOII flow cytometer, and the data were processed and analyzed using FlowJo v10 (FlowJo, LLC) software.

Sequence of human ROR1 (Q01973 30-937): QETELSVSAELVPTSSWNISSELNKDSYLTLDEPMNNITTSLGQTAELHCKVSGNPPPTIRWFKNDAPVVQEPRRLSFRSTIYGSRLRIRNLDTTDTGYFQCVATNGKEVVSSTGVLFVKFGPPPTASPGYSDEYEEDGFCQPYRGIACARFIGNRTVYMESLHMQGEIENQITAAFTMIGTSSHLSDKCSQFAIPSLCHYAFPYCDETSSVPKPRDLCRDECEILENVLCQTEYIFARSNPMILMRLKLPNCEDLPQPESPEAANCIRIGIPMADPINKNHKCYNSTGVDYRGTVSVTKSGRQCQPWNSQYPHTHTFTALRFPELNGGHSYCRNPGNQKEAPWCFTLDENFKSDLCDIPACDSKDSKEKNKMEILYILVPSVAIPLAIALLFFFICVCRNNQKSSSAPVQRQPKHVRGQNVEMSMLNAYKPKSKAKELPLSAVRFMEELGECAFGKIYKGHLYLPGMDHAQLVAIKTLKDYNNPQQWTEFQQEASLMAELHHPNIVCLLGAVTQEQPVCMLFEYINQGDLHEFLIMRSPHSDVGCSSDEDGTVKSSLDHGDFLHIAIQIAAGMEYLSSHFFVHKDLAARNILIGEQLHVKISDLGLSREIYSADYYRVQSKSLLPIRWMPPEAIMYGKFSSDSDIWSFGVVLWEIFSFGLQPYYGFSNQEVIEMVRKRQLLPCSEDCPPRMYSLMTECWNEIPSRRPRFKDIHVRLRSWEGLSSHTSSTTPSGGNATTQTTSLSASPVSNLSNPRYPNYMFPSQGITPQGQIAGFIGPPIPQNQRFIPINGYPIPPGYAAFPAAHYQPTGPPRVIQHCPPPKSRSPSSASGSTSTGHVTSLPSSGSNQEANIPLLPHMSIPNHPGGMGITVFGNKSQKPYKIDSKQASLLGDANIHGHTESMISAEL

Binder | binding result [1] | binding result [2]
B1 | binds | –
B2 | binds | –
B3 | – | binds
B4 | – | binds
